Read counts are not given, so values of variants with three or more changes are uncertain.
B1: CPEB3 Ribozyme (parent)
chain: UAACAGGGGGCCACAGCAGAAGCGUUCACGUCGCAGCCCCUGUCAGAUUCUGGUGAAUCUGCGAAUUCUGCUGUAUAUCUC

Variants of: B1
Assay: self-cleavage, relative activity (ratio to wild type); higher = more cleavage; in vitro, sequencing
Procedure, shortened: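 After error-prone PCR and barcoding, CPEB3 ribozyme mutant libraries were transcribed with T7 RNA polymerase at 37°C for 5 hours, then given 15 min with DNase I before an EDTA stop, and they cleaved during both steps. Reverse transcription with template switching preceded Illumina sequencing. Relative activity divides a variant's cleaved/total read fraction by the unmutated ribozyme's. At least 5 reads were required per variant, and three batches were averaged.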

| Variant | self-cleavage |
| --- | --- |
| A20G U31C U60A A64U | 0.12 |
| A20U U31C A45U | 0.24 |
| A20U G22C U43C A45U U49A | 0.07 |
| A20G U25C A35G U58C U66C A77C U80C | 0.15 |
| A20G G33U U43C U49C G70U U72A | 0.1 |
| A20G U25A U49C U72G | 0.06 |
| A20G U25C C32A C39G U51A U78C | 0.05 |
| A20U A21G C39U U51G G55A | 0.13 |
| A20U U41C C44U A65G U69A | 0.06 |
| A20G U51G U60C G61A | 0.32 |
| A20U C23G A28U A56U | 0.16 |
| A20U U25C U51G U80A | 0.12 |
| A20U G33A C34U U43C A57G U69C | 0.11 |
| A20U C34A U43C U60A A75G | 0.03 |
| A20U A28G G33U U51A U67C | 0.05 |
| A20G A28U A35G A47C | 0.64 |
| A20G G36U C40U U54C | 0.11 |
| A20U A45G U67C | 0.13 |
| A20G A56U A65U U74C | 0.54 |
| A20G A28U U43C U54C | 0.22 |
| A20G U26A A35U U54C | 0.11 |
| A20U C38U U58G | 0.05 |
| A20G A28G U49C G53A | 0.09 |
| A20U C29U U66A A75U | 0.12 |

| Variant | self-cleavage |
| --- | --- |
| A20G A57G U69C U72C | 0.15 |
| A20U U41C U60C A65G | 0.37 |
| A20U C68G U80C | 0.06 |
| A20G U25C C40U A45G U69G | 0.4 |
| A20U U26C U48C A77G | 0.1 |
| A20G C59A A77U | 0.23 |
| A20U U26A U76C U78C | 0.2 |
| A20U A64U A77G | 0.13 |
| A20G U49C U54C U60A | 0.01 |
| A20U A21G U43C | 0.39 |
| A20G U54A A56G | 0.38 |
| A20G U25C U41C U51C U54A A77G | 0.04 |
| A20U U31A A35G A45C U54G U72C U78C | 0.06 |
| A20U C40A U67C | 0.06 |
| A20U G22C C40U U58C U76C U78C | 0.05 |
| A20G U41A U78C | 0.14 |
| A20G G24A A35G U74C | 0.53 |
| A20G U31C U49C | 0.34 |
| A20U U41A U66C | 0.21 |
| A20G U51A G63A | 0.85 |
| A20U U41A C62G U69A U74G U80C | 0.09 |
| A20G U25C U41A A45U | 0.12 |
| A20U A28U U41A A45U A57G U78C | 0.05 |
| A20G A35G A56G U78C | 1.18 |

| Variant | self-cleavage |
| --- | --- |
| A20U A28G U41C C50U A57G U74C | 0.23 |
| A20G C23U G24A U26C U49C | 0.24 |
| A20U A21U A56U | 0.17 |
| A20G U54A U60C U78C | 0.41 |
| A20G C62A U72C G73A | 0.13 |
| A20U U25C A56G | 0.34 |
| A20G C29U U54C A57G | 0.26 |
| A20G U43A U48C A56G A65G | 0.13 |
| A20G U60A U76C U78A | 0.43 |
| A20G A35U G55A | 0.2 |
| A20G A64U U66A U69C U72C U76C U78C | 0.22 |
| A20G A47G U54A | 0.79 |
| A20G U26A U60A | 0.28 |
| A20G A47G G55C U67C | 0.4 |
| A20U G36U U60C U69C | 0.05 |
| A20G U25C U43A U49C A56G | 0.29 |
| A20G G33A U41G A65U | 0.27 |
| A20G C27A U43A | 0.51 |
| A20G C23U A47G | 0.3 |
| A20G U25C U41A A64G | 0.38 |
| A20U U43A A45G A56G U72C | 0.17 |
| A20G U43A A57G A75G | 0.52 |
| A20G U26A A35U A64U | 0.31 |
| A20G U54A U67C U72A | 0.56 |

| Variant | self-cleavage |
| --- | --- |
| A20G U26C U54A | 0.4 |
| A20G U41C U72C | 0.78 |
| A20G G33U U41C | 0.24 |
| A20U U31A A35G U66C A77G | 0.42 |
| A20U A28G C38U C50U A57G U80C | 0.07 |
| A20G A45U U51C | 0.44 |
| A20U U41C A57U | 0.21 |
| A20G U69A U78A | 0.39 |
| A20G U31G U41A U51A U69A | 0.16 |
| A20G A35U U43A A45U A75G | 0.12 |
| A20G A35U U60C | 0.1 |
| A20U A64U A65G | 0.12 |
| A20G U43C G55A U69A | 0.04 |
| A20U G52C A64U | 0.24 |
| A20G U31G C68G U80C | 0.17 |
| A20G U26A C39G U51A U74A U78C | 0.42 |
| A20G U31A G46A | 0.45 |
| A20G U49C U58C U69C | 0.14 |
| A20U A35U A75U | 0.28 |
| A20G A28U A57G | 0.45 |
| A20G U31C C37G A57G | 0.12 |
| A20U U31C U76C | 0.35 |
| A20G G22A A57G | 0.14 |
| A20G C23A U41C G42A U43C | 0.13 |

| Variant | self-cleavage |
| --- | --- |
| A20U A21G U26A U78C | 0.05 |
| A20U U26C C27U A56G | 0.15 |
| A20G A28U U49C U66A | 0.13 |
| A20G A35U C81U | 0.4 |
| A20G G22U U51C G52U U54C | 0.15 |
| A20G U26G U54C U78C | 0.27 |
| A20U U25C G30C A56U | 0.1 |
| A20U G24U U78C | 0.4 |
| A20G C29A U80C | 0.47 |
| A20G A35U U58C U76A U80A | 0.11 |
| A20G U54C U58A A64G U74C U80C | 0.09 |
| A20G U41C U69C | 0.47 |
| A20G C39A U54A | 0.34 |
| A20U U26A U41C A56U U60A | 0.15 |
| A20G U54C A57G U72C | 0.5 |
| A20G C38A U58C | 0.26 |
| A20G C38G U51C U74C | 0.42 |
| A20G U26A A35U U49A | 0.28 |
| A20U G42A G70A | 0.12 |
| A20G U25C A45U G63U | 0.06 |
| A20G U48C G52A A56G | 0.23 |
| A20G A35G A45U U67C | 0.68 |
| A20G U72C U78C | 0.82 |
| A20G G42A A57G | 0.21 |

| Variant | self-cleavage |
| --- | --- |
| A20G U48C U78C C81U | 0.2 |
| A20G U43C U51G A56G U60A U69C U74C | 0.21 |
| A20G C23U U25C | 0.38 |
| A20G U43A U66C | 0.54 |
| A20G G22U U31C U78C | 0.11 |
| A20G U25C A56G | 0.19 |
| A20G A45G C50A A57C A64G | 0.07 |
| A20G A45U U48C U51C A77U | 0.08 |
| A20G U49C U60C U78C | 0.3 |
| A20G U67A C68G | 0.12 |
| A20U U31A U58A U66C | 0.06 |
| A20G U26C C40U A56G | 0.11 |
| A20G U31C U80C | 0.66 |
| A20G U26G U31C A47G U49G | 0.51 |
| A20U U25C U31C U66C U69C U78C | 0.04 |
| A20G G22C U69A G73C | 0.23 |
| A20G U26A U48C U54C | 0.15 |
| A20G U43C A64G U69G | 0.21 |
| A20G U58A U67C | 0.45 |
| A20G U26G A56U A57G | 0.1 |
| A20U A21U A28U C40U U78C | 0.12 |
| A20U C34G U67C | 0.04 |
| A20U G24C U25C U31C | 0.11 |
| A20G U43A G55U | 0.97 |

| Variant | self-cleavage |
| --- | --- |
| A20G A45G A77U | 0.31 |
| A20U C23A C27A U51A U60C | 0.08 |
| A20U U25C G61A A64G | 0.12 |
| A20G U43C G46A U67C | 0.11 |
| A20G C32U U74C | 0.37 |
| A20G U25A U26C A64G U74C | 0.2 |
| A20U U26C C39U U43C U54C U67C | 0.08 |
| A20U A35U G63U A64G | 0.44 |
| A20U A45C U54C | 0.1 |
| A20U A21G G33U A45U U78C | 0.05 |
| A20G U25C U26G A56G U76A | 0.08 |
| A20G U25C G55C A77G U80C | 0.28 |
| A20G U25C U26C A28G | 0.46 |
| A20U C62U U69A U72C | 0.22 |
| A20G U25C U72C | 0.4 |
| A20U G46U C50U A56G U67C U69G | 0.11 |
| A20G C29U U54C | 0.27 |
| A20U U41A A56G U78C | 0.06 |
| A20G A65G U66G U72C | 0.12 |
| A20G U26A U51C C68U U80C | 0.4 |
| A20G U41C U43C U60A U74C | 0.3 |
| A20G A28G U66C | 0.35 |
| A20G U25A A35G A56G | 0.15 |

— the RNAGym collection of RNA variant scans (doi:10.1093/nar/gkz1192)
